The whole screen tested about 310,000 compounds, of which about 14,000 (4.5%) showed an effect of 50% or more. Effects have a minus sign here. The list shows a part of the results.
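Also: peak tail current of the secondary pulse compared with the same well before compound.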

Sequence of human ether-à-go-go-related gene (hERG) potassium channel (Q12809 whole entry, looked up): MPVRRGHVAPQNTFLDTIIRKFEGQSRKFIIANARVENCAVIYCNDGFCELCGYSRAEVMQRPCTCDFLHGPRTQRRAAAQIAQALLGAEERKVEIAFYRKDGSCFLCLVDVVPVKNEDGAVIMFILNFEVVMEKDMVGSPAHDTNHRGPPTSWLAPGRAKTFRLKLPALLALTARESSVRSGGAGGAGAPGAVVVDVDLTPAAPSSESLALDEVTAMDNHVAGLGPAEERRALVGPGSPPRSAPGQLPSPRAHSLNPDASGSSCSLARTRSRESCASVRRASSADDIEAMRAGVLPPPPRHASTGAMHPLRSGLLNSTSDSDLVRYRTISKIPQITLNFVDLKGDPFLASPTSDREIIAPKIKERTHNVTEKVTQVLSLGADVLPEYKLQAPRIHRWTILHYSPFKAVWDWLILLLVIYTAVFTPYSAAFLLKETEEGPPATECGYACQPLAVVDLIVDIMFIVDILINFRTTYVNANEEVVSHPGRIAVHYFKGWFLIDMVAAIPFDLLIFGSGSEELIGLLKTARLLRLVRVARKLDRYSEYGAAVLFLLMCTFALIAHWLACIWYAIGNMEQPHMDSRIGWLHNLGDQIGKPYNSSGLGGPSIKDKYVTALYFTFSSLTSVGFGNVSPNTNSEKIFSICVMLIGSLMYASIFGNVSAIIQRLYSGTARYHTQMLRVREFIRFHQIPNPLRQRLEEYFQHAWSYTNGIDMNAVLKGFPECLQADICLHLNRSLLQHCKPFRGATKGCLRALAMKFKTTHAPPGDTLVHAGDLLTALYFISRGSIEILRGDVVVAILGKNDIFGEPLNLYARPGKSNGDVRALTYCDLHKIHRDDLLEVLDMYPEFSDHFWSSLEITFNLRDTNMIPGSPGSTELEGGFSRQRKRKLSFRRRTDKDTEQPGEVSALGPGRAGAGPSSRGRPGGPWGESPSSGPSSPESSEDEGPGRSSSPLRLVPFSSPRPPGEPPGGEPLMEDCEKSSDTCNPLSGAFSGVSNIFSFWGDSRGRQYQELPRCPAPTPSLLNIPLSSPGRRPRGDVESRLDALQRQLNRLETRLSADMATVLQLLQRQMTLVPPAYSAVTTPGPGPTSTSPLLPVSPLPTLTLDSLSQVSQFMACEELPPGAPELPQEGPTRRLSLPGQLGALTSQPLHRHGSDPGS

The assay has as its target human ether-à-go-go-related gene (hERG) potassium channel (human, UniProt Q12809). Briefly: primary screen, population patch clamp on CHO cells stably expressing hERG.
Take `Cc1cc(C)cc(C(=O)N2CC(C)OC(C)C2)c1` (stereo not shown): the “hERG current change (%, negative = inhibition) at 10uM” value was -0.601%.
Turning to `COC(=O)c1c(NC(=O)C(C)(C)C)csc1C`, the “hERG current change (%, negative = inhibition) at 10uM” value is -1.4%.
As to `CCN(N=Nc1cccc([N+](=O)[O-])c1)c1cccc([N+](=O)[O-])c1`, the “hERG current change (%, negative = inhibition) at 10uM” value was -7.75%.
On to `COc1cccc(-n2cc(CNCc3cn(C)nc3-c3ccccc3F)cn2)c1`, for which the “hERG current change (%, negative = inhibition) at 10uM” value is recorded as -19.3%.
As for `Cc1oc(-c2cccc(Cl)c2)nc1CN1CCCC(C(=O)NC(C)c2ccc3c(c2)OCCO3)C1` (stereo not shown), the “hERG current change (%, negative = inhibition) at 10uM” value was -57.5%.
As for `Cn1c(SCC(=O)N2CCCCCC2)nnc1-c1ccco1`, the “hERG current change (%, negative = inhibition) at 10uM” value is listed as 14%.
For the compound `COc1ccccc1N1C(=O)C2C3CC(c4ccccc4)C(C3)C2C1=O` (stereo not shown), the “hERG current change (%, negative = inhibition) at 10uM” value is -5.22%.
Regarding `CC(C)(C)C(=O)Nc1ccc(Cc2ccncc2)cc1`, the “hERG current change (%, negative = inhibition) at 10uM” value was determined as 12.1%.
With `CCOc1ccc(Nc2nc3c(C)cccc3cc2C#N)cc1`, the “hERG current change (%, negative = inhibition) at 10uM” value turned out to be 4.76%.
With `COc1ccc2sc(-c3ccccc3OC)c(-c3ccc(O)cc3)c2c1`, the “hERG current change (%, negative = inhibition) at 10uM” value came to 15.1%.
Consider `CCOCCn1c(=NC(=O)CSCC(=O)Nc2cc(C)on2)sc2cc(OC)ccc21`, for which the “hERG current change (%, negative = inhibition) at 10uM” value is on record as -39.8%.
In the case of `CC(C)C(NC(=O)c1ccco1)C(=O)OCc1cc([N+](=O)[O-])cc2c1OCOC2` (stereo not shown), the “hERG current change (%, negative = inhibition) at 10uM” value was -11.3%.
As to `COc1ccc(N2CC(O)=C(c3nc(-c4ccc(Cl)cc4)cs3)C2=N)cc1`, the “hERG current change (%, negative = inhibition) at 10uM” value is on record as 36.1%.
`O=C(Cn1cc(Cl)c([N+](=O)[O-])n1)NCCC1=CCCCC1`: the “hERG current change (%, negative = inhibition) at 10uM” value stood at 12.1%.
As for `COc1ccc(S(=O)(=O)N2CCC(C(=O)NCCN3CCOCC3)CC2)cc1`, the “hERG current change (%, negative = inhibition) at 10uM” value amounted to 14.2%.
On to `CC(C)CNC(=O)C1CCN(S(=O)(=O)c2ccc(-n3cnnn3)cc2)CC1`, for which the “hERG current change (%, negative = inhibition) at 10uM” value is given as -55.3%.
On to `CNC(=O)C1CC(=O)N(CCc2ccccc2)C(=Nc2ccc(OC)cc2)S1` (stereo not shown), for which the “hERG current change (%, negative = inhibition) at 10uM” value was 12.1%.
For `CCOC(=O)N1CCN(S(=O)(=O)c2cc(OCC)ccc2OCC)CC1`, the “hERG current change (%, negative = inhibition) at 10uM” value was 3.88%.
For `O=c1[nH]ncc(N/N=C\c2ccncc2)c1Cl`, the “hERG current change (%, negative = inhibition) at 10uM” value is 18.1%.
In the case of `Cn1c(=O)c(=O)n(C)c2cc(S(=O)(=O)N3CC(=O)N(CCc4ccccc4)C(=O)C3)ccc21` it was 19.4%; in that of `Nc1nonc1-n1nnc(C(=O)N/N=C/c2ccc(OCc3ccccc3)cc2)c1CN1CCCCC1`, 7.17%; in that of `CCCC(=O)NCCc1nc2cc([N+](=O)[O-])ccc2n1C`, -16.4%.
Regarding `CCc1cc2cc3c(cc2nc1SCC(=O)OC(C)C)OCO3`, the “hERG current change (%, negative = inhibition) at 10uM” value is given as -6.18%.
With `NC(=O)c1cnn2c(C(F)(F)F)cc(-c3ccccc3)nc12` the figure was -22.2%; with `O=C(c1ccc([N+](=O)[O-])cc1Cl)N1CCN(c2ccccn2)CC1`, -45%; with `O=C(N1CCOCC1)n1cnc2ccccc21`, 22.5%.
For `CCOC(=O)Nc1ccc2c(c1)N(C(=O)CCN1CCN3CCCC3C1)c1ccccc1CC2.Cl.O` (stereo not shown), the “hERG current change (%, negative = inhibition) at 10uM” value was found to be 10.7%.
Take `COc1cccc(NP(=O)(Oc2ccc(Cl)cc2)Oc2ccc(Cl)cc2)c1`: the “hERG current change (%, negative = inhibition) at 10uM” value is -9.06%.
As to `Cc1n[nH]c(C)c1CCCCOc1ccccc1F`, the “hERG current change (%, negative = inhibition) at 10uM” value was found to be 1.05%.
Turning to `CC(C)(C)OC(=O)NCCC(=O)N/N=C/c1cccc2nccnc12`, the “hERG current change (%, negative = inhibition) at 10uM” value is reported as 8.03%.
`COc1ccc(C(=O)COC(=O)CN2CC(=O)Oc3ccccc32)cc1Br`: the “hERG current change (%, negative = inhibition) at 10uM” value is on record as 9.4%.
With `O=C(CN1C(=O)c2ccccc2C1=O)Nc1cccc2cccnc12` the figure was 6.19%.
Consider `Cc1ccc(NC(=O)CN(C)S(=O)(=O)c2cccc3nsnc23)cc1`, for which the “hERG current change (%, negative = inhibition) at 10uM” value is -26.7%.
In the case of `CC(CCc1ccccc1)NC(=O)CN1CCOc2ccccc21` (stereo not shown) it was -12.3%; in that of `COC(=O)CCN(C(=O)c1ccc([N+](=O)[O-])cc1)c1ccccn1`, 9.7%; in that of `CCOC(=O)N1CCN(c2ccc(C(=O)c3ccccc3)cc2F)CC1`, -50.8%.
With `CCc1cc(Cn2nc(-c3ccccc3)cc2C(=O)NCc2cccc(C(F)(F)F)c2)on1` the figure was 6.81%; with `CC(OC(=O)/C=C/c1cccs1)C(=O)Nc1ccc(S(N)(=O)=O)cc1` (stereo not shown), 1.47%.
As for `Cc1nc2ccccn2c1C(=O)NN`, the “hERG current change (%, negative = inhibition) at 10uM” value is recorded as 9.06%.
With `CC(=O)N1CCc2c(sc(NC(=O)CCS(=O)(=O)c3ccc(C)cc3)c2C(N)=O)C1` the figure was 2.54%; with `O=C1OC2(c3ccccc3)C3CCCC2C13`, 11.1%; with `COCc1cc(C)nc(SCC[N+](C)(C)CC(=O)c2ccc(Br)cc2)c1C#N.[Br-]`, -1.5%.
As to `Br.Cn1c(=N)n(CC(=O)c2ccc(Br)cc2)c2ccccc21`, the “hERG current change (%, negative = inhibition) at 10uM” value is -41%.
Regarding `O=C1OC(c2ccccc2)=N/C1=C\N1CCCCC1`, the “hERG current change (%, negative = inhibition) at 10uM” value was -1.32%.
In the case of `CNc1ccc(/C=C2\COc3ccccc3C2=O)cc1[N+](=O)[O-]` it was 11.1%.
For `c1ccc(C(NCCNC(c2ccccc2)c2ccccc2)c2ccccc2)cc1`, the “hERG current change (%, negative = inhibition) at 10uM” value turned out to be 8.38%.
Consider `CCn1c(SCC(=O)Nc2ccc(Cl)cc2)nnc1C1CC1`, for which the “hERG current change (%, negative = inhibition) at 10uM” value was -29.8%.
On to `Cc1ccc(C(=O)NCc2ccc3c(c2)OCO3)o1`, for which the “hERG current change (%, negative = inhibition) at 10uM” value was 14.5%.
Take `Cc1ccc(S(=O)(=O)N(C)CC(=O)Nc2cccc(C)n2)cc1`: the “hERG current change (%, negative = inhibition) at 10uM” value is given as 15.2%.
With `COC(=O)c1ccccc1S(=O)(=O)N1CCCC(c2nc3c(nnn3Cc3ccc(C)cc3)c(=O)[nH]2)C1` (stereo not shown) the figure was -20.5%; with `COc1cccc(-c2nc(CS(=O)(=O)CC(=O)Nc3cc(C)ccc3C)c(C)o2)c1`, 7.02%; with `COc1cc(C(=O)NCCCc2ccccc2)cc(OC)c1OC`, 8.24%.
With `O=C(Nc1ccc(C(F)(F)F)cc1[N+](=O)[O-])O[C@H]1[C@H](Cc2ccccc2)NS(=O)(=O)[C@H]2C[C@@H]3C=C[C@]12O3` the figure was 9.28%; with `CSCC(=O)N1CCCC(CO)(CCCc2ccccc2)C1` (stereo not shown), -4.78%.
With `O=S(=O)(Nc1cccc2cn[nH]c12)c1ccc(F)cc1`, the “hERG current change (%, negative = inhibition) at 10uM” value is -5.83%.

The values are drawn from paper PMC4336329 (PLoS ONE, 2015).
